This passage reports cytotoxicity call and growth inhibition call results from the antibiotic and cytotoxicity screens of Wong et al. (2023).

Each structure is given as a SMILES string. The list shows a part of the results.

The test system of one assay is HSkMC. Put plainly: cytotoxicity call (relative viability < 0.9). To be noted: 10 µM.
Another assay has as its system HepG2. Put plainly: cytotoxicity call (relative viability < 0.9). To be noted: 10 µM.
The subject of the next assay is S. aureus RN4220. Put plainly: growth inhibition call (relative growth <= 0.2). The settings on record: 50 µM.

Regarding `C[C@@H]1CN([C@H](C)CO)C(=O)c2cc(NC(=O)Nc3ccc(F)cc3)ccc2O[C@@H]1CN(C)Cc1ccc(Oc2ccccc2)cc1`, the cytotoxicity call in the assay with HSkMC and with HepG2 was “active” throughout. For the same compound, the growth inhibition call with S. aureus RN4220 is “inactive”.
Regarding `C[C@@H]1CCCCO[C@H](CN(C)C(=O)CCCN(C)C)[C@H](C)CN([C@H](C)CO)C(=O)c2cc(NC(=O)Nc3cccc4ccccc34)ccc2O1`, the cytotoxicity call with HSkMC and in the assay with HepG2 was “inactive” throughout. Also, the growth inhibition call with S. aureus RN4220 was “inactive”.
On to `C[C@@H]1CN([C@@H](C)CO)C(=O)c2cc(NC(=O)Cc3ccccc3)ccc2O[C@@H](C)CCCCO[C@@H]1CN(C)CC1CCCCC1`, for which the cytotoxicity call in the assay with HSkMC and in the assay on HepG2 was “inactive” each time. The growth inhibition call in the assay on S. aureus RN4220 is “inactive”.
For `Cc1ccc(S(=O)(=O)N(C)C[C@H]2OCCCC[C@H](C)Oc3ccc(NC(=O)Nc4ccccc4)cc3C(=O)N([C@H](C)CO)C[C@H]2C)cc1`, the cytotoxicity call in the assay on HSkMC and with HepG2 was “inactive” throughout. The growth inhibition call in the assay with S. aureus RN4220 was “inactive”.
Regarding `Cc1ccc(S(=O)(=O)N(C)C[C@H]2Oc3ccc(NC(=O)Cn4cnnn4)cc3C(=O)N([C@H](C)CO)C[C@@H]2C)cc1`, the cytotoxicity call in the assay on HSkMC and with HepG2 was “inactive” throughout. For the same compound, in the assay with S. aureus RN4220, the growth inhibition call is “inactive”.
For the compound `C[C@@H]1CCCCO[C@H](CN(C)Cc2ccncc2)[C@@H](C)CN([C@H](C)CO)C(=O)c2cc(NC(=O)Nc3ccc(F)cc3)ccc2O1`, the cytotoxicity call in the assay on HSkMC and with HepG2 was “inactive” throughout. For the same compound, in the assay with S. aureus RN4220, the growth inhibition call was “inactive”.
In the case of `C[C@H]1CN([C@@H](C)CO)C(=O)Cc2cc(NC(=O)Nc3ccc(F)cc3)ccc2O[C@H]1CN(C)S(C)(=O)=O`, the cytotoxicity call with HSkMC and in the assay with HepG2 was “inactive” each time. Besides, the growth inhibition call in the assay with S. aureus RN4220 was “inactive”.
`C[C@H]1CN([C@@H](C)CO)C(=O)CCCn2cc(nn2)CO[C@@H]1CN(C)S(=O)(=O)c1ccc(Oc2ccccc2)cc1`: the cytotoxicity call in the assay with HSkMC and with HepG2 was “inactive” each time. In addition, the growth inhibition call with S. aureus RN4220 was “inactive”.
For the compound `COCC(=O)Nc1ccc2c(c1)C(=O)N(C)[C@@H]1CC[C@H](CC(=O)NC3Cc4ccccc4C3)O[C@H]1CO2`, the cytotoxicity call in the assay with HSkMC and in the assay with HepG2 was “inactive” throughout. Besides, the growth inhibition call with S. aureus RN4220 is “inactive”.
In the case of `CNC(=S)NCc1ccco1`, the cytotoxicity call in the assay with HSkMC and in the assay with HepG2 was “inactive” in each case. The growth inhibition call in the assay with S. aureus RN4220 was “inactive”.
`C[C@H](CO)N1C[C@H](C)[C@@H](CN(C)Cc2ccc(Oc3ccccc3)cc2)Oc2ccc(NC(=O)Nc3ccc(C(F)(F)F)cc3)cc2CC1=O`: the cytotoxicity call in the assay with HSkMC and with HepG2 was “active” throughout. In addition, the growth inhibition call in the assay on S. aureus RN4220 is “inactive”.
With `COc1ccc(S(=O)(=O)N(C)C[C@@H]2Oc3ccc(NS(=O)(=O)c4cccs4)cc3CC(=O)N([C@H](C)CO)C[C@@H]2C)cc1`, the cytotoxicity call with HSkMC and in the assay on HepG2 was “inactive” in each case. For the same compound, the growth inhibition call with S. aureus RN4220 is “inactive”.
As to `CC(C)NC(=O)N(C)C[C@@H]1OCCCC[C@H](C)Oc2ccc(NC(=O)Nc3ccccc3)cc2C(=O)N([C@H](C)CO)C[C@@H]1C`, the cytotoxicity call with HSkMC and in the assay with HepG2 was “inactive” throughout. Moreover, the growth inhibition call in the assay with S. aureus RN4220 is “inactive”.
On to `C[C@H](CO)N1C[C@H](C)[C@H](CN(C)C(=O)NC2CCCCC2)OCCCC[C@H](C)Oc2ccc(NS(=O)(=O)c3ccccc3)cc2C1=O`, for which the cytotoxicity call in the assay on HSkMC was “inactive”. In addition, the cytotoxicity call in the assay with HepG2 was “active”. The growth inhibition call in the assay on S. aureus RN4220 was “inactive”.
With `CNc1[nH]cnc(=S)c1N`, the cytotoxicity call with HSkMC and in the assay on HepG2 was “inactive” in each case. In addition, the growth inhibition call with S. aureus RN4220 is “inactive”.
Consider `C[C@H]1CN([C@@H](C)CO)C(=O)Cc2cc(NS(=O)(=O)c3cn(C)cn3)ccc2O[C@@H]1CN(C)C`, for which the cytotoxicity call in the assay on HSkMC and in the assay with HepG2 was “inactive” throughout. For the same compound, the growth inhibition call in the assay with S. aureus RN4220 is “inactive”.
In the case of `C[C@H](CO)N1C[C@H](C)[C@H](CN(C)C(=O)Nc2cccc3ccccc23)OCCCC[C@H](C)Oc2ccc(NC(=O)c3ccccc3)cc2C1=O`, the cytotoxicity call in the assay on HSkMC and in the assay on HepG2 was “inactive” each time. In addition, the growth inhibition call with S. aureus RN4220 was “inactive”.
As to `CC(CCc1ccccc1)NCC(O)c1ccc(O)c(C(N)=O)c1.Cl` (centres undefined), the cytotoxicity call in the assay on HSkMC and with HepG2 was “inactive” throughout. In the assay on S. aureus RN4220, the growth inhibition call is “inactive”.
Regarding `C[C@@H]1CN([C@@H](C)CO)C(=O)c2cc(NC(=O)c3ccncc3)ccc2O[C@@H]1CN(C)C(=O)Nc1ccc2c(c1)OCO2`, the cytotoxicity call with HSkMC and with HepG2 was “inactive” throughout. In addition, in the assay with S. aureus RN4220, the growth inhibition call was “inactive”.
On to `Cc1noc(C)c1S(=O)(=O)N(C)C[C@@H]1Oc2ccc(NS(=O)(=O)c3cccs3)cc2C(=O)N([C@H](C)CO)C[C@@H]1C`, for which the cytotoxicity call in the assay on HSkMC and with HepG2 was “inactive” throughout. Also, the growth inhibition call in the assay with S. aureus RN4220 was “inactive”.
As to `CN1CCC(Nc2nc(Nc3ccc(Oc4ccccc4)cc3)c3c(O)ncc(Br)c3n2)CC1`, the cytotoxicity call in the assay with HSkMC and with HepG2 was “active” in each case. The growth inhibition call in the assay with S. aureus RN4220 is “inactive”.
`O=C1[C@@H]2[C@H](C(=O)N1c1ccccc1)C13COC[C@H](c4ccccc4)N1C(=O)C2(C(=O)NCCc1c[nH]c2ccccc12)O3` (some centres undefined): the cytotoxicity call in the assay on HSkMC and in the assay on HepG2 was “inactive” each time. Moreover, the growth inhibition call in the assay with S. aureus RN4220 was “inactive”.
For the compound `C[C@@H]1CN([C@@H](C)CO)C(=O)c2cc(NC(=O)C3CCCCC3)ccc2O[C@@H](C)CCCCO[C@H]1CN(C)C(=O)NC1CCCCC1`, the cytotoxicity call in the assay with HSkMC and in the assay on HepG2 was “inactive” throughout. For the same compound, the growth inhibition call in the assay with S. aureus RN4220 is “inactive”.
As for `C[C@@H]1CN([C@H](C)CO)C(=O)c2cc(NS(=O)(=O)c3ccc(Cl)cc3)ccc2O[C@@H](C)CCCCO[C@@H]1CN(C)Cc1ccncc1`, the cytotoxicity call in the assay on HSkMC (human skeletal muscle cells) and in the assay on HepG2 was “inactive” each time. Also, the growth inhibition call with S. aureus RN4220 was “inactive”.
For the compound `Nc1ccc(Nc2ccccc2)cc1`, the cytotoxicity call in the assay with HSkMC and in the assay with HepG2 was “inactive” in each case. Moreover, in the assay with S. aureus RN4220, the growth inhibition call is “inactive”.
Regarding `CNC(=O)c1c(F)cccc1Nc1nc(Nc2cc3c(cc2OC)CCN3C(=O)CN(C)C)nc2[nH]ccc12`, the cytotoxicity call with HSkMC and in the assay with HepG2 was “active” in each case. Besides, the growth inhibition call in the assay with S. aureus RN4220 was “inactive”.
With `C[C@@H]1CN([C@@H](C)CO)C(=O)c2cc(NC(=O)Nc3ccc(C(F)(F)F)cc3)ccc2O[C@H]1CN(C)Cc1ccccc1`, the cytotoxicity call with HSkMC was “active”. Moreover, in the assay with HepG2, the cytotoxicity call is “inactive”. Besides, the growth inhibition call in the assay with S. aureus RN4220 was “inactive”.
In the case of `C[C@@H]1CN([C@@H](C)CO)C(=O)c2cc(NC(=O)c3ccccc3)ccc2O[C@@H](C)CCCCO[C@H]1CN(C)C(=O)Nc1cccc2ccccc12`, the cytotoxicity call with HSkMC is “inactive”. In addition, the cytotoxicity call with HepG2 was “active”. Further, the growth inhibition call with S. aureus RN4220 was “inactive”.
